# Assay results taken from the supplement of paper PMC8728848.
# The other results are listed elsewhere or left out.
# B1: chitinase 3-like protein 2 (Homo sapiens) (protein)
# chain: YKLVCYFTQWSQDRQEPGKFTPENIDPFLCSHLIYSFASIENNKVIIKDKSEVMLYQTINSLKTKNPKLKILLSIGGYLFGSKGFHPMVDSSTSRLEFINSIILFLRNHNFDGLDVSWIYPDQKENTHFTVLIHELAEAFQKDFTKSTKERLLLTAGVSAGRQMIDNSYQVEKLAKDLDFINLLSFDFHGSWEKPLITGHNSPLSKGWQDRGPSSYYNVEYAVGYWIHKGMPSEKVVMGIPTYGHSFTLASAETTVGAPASGPGAAGPITESSGFLAYYEICQFLKGAKITRLQDQQVPYAVKGNQWVGYDDVKSMETKVQFLKNLNLGGAMIWSIDMDDFTGKSCNQGPYPLVQAVKRSLGSL
# What was measured:
# Test in all cases: glycan array binding signal (z-score within array); higher = stronger binding
# Details in all cases: glycan notation: IUPAC condensed, linker removed
# [1] = target: Neu5Ac(a2-3)Gal(b1-3)GlcNAc
# How it was run: (§1)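 The Consortium for Functional Glycomics database supplied 3228 glycan arrays, of which those lacking an available protein sequence were dropped. The binding signal, a within-array Z-score, was averaged across arrays of the same protein sequence and across linkers. Negative scores can be read as non-binding.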
# [2] = target: Neu5Ac(a2-3)Gal(b1-3)GlcNAc(b1-3)Gal(b1-4)GlcNAc
# How it was run: as §1
# [3] = target: Neu5Ac(a2-3)Gal(b1-3)GlcNAc6S
# How it was run: as §1
# [4] = target: Neu5Ac(a2-3)Gal(b1-3)[Fuc(a1-4)]GlcNAc
# How it was run: as §1
# [5] = target: Neu5Ac(a2-3)Gal(b1-3)[Fuc(a1-4)]GlcNAc(b1-3)Gal(b1-4)[Fuc(a1-3)]GlcNAc
# How it was run: as §1
# [6] = target: Neu5Ac(a2-3)Gal(b1-3)[Neu5Ac(a2-3)Gal(b1-4)]GlcNAc
# How it was run: as §1
# [7] = target: Neu5Ac(a2-3)Gal(b1-3)[Neu5Ac(a2-6)]GalNAc
# How it was run: as §1
# Neu5Ac(a2-3)Gal(b1-4)Glc = target: Neu5Ac(a2-3)Gal(b1-4)Glc
# How it was run: as §1
# [8] = target: Neu5Ac(a2-3)Gal(b1-4)GlcNAc
# How it was run: as §1
# [9] = target: Neu5Ac(a2-3)Gal(b1-4)GlcNAc(b1-3)Gal(b1-4)GlcNAc
# How it was run: as §1
# [10] = target: Neu5Ac(a2-3)Gal(b1-4)GlcNAc(b1-3)Gal(b1-4)GlcNAc(b1-3)Gal(b1-4)GlcNAc
# How it was run: as §1
# [11] = target: Neu5Ac(a2-3)Gal(b1-4)GlcNAc(b1-3)Gal(b1-4)[Fuc(a1-3)]GlcNAc
# How it was run: as §1
# [12] = target: Neu5Ac(a2-3)Gal(b1-4)GlcNAc6S
# How it was run: as §1
# [13] = target: Neu5Ac(a2-3)Gal(b1-4)[Fuc(a1-3)]GlcNAc
# How it was run: as §1
# [14] = target: Neu5Ac(a2-3)Gal(b1-4)[Fuc(a1-3)]GlcNAc(b1-3)Gal
# How it was run: as §1
# [15] = target: Neu5Ac(a2-3)Gal(b1-4)[Fuc(a1-3)]GlcNAc(b1-3)Gal(b1-4)GlcNAc
# How it was run: as §1
# [16] = target: Neu5Ac(a2-3)Gal(b1-4)[Fuc(a1-3)]GlcNAc(b1-3)Gal(b1-4)[Fuc(a1-3)]GlcNAc(b1-3)Gal(b1-4)[Fuc(a1-3)]GlcNAc
# How it was run: as §1
# [17] = target: Neu5Ac(a2-3)Gal(b1-4)[Fuc(a1-3)]GlcNAc6S
# How it was run: as §1
# [18] = target: Neu5Ac(a2-3)Gal6S(b1-4)GlcNAc
# How it was run: as §1
# [19] = target: Neu5Ac(a2-3)Gal6S(b1-4)[Fuc(a1-3)]GlcNAc
# How it was run: as §1
# Neu5Ac(a2-3)GalNAc = target: Neu5Ac(a2-3)GalNAc
# How it was run: as §1
# [20] = target: Neu5Ac(a2-3)GalNAc(b1-4)GlcNAc
# How it was run: as §1
# [21] = target: Neu5Ac(a2-3)[GalNAc(b1-4)]Gal(b1-4)Glc
# How it was run: as §1
# [22] = target: Neu5Ac(a2-3)[GalNAc(b1-4)]Gal(b1-4)GlcNAc
# How it was run: as §1
# [23] = target: Neu5Ac(a2-3)[Neu5Ac(a2-6)]GalNAc
# How it was run: as §1
# [24] = target: Neu5Ac(a2-6)Gal(b1-4)GlcNAc
# How it was run: as §1
# [25] = target: Neu5Ac(a2-6)Gal(b1-4)GlcNAc(b1-2)Man(a1-3)[Neu5Ac(a2-6)Gal(b1-4)GlcNAc(b1-2)Man(a1-6)]Man(b1-4)GlcNAc(b1-4)GlcNAc
# How it was run: as §1
# [26] = target: Neu5Ac(a2-6)Gal(b1-4)GlcNAc(b1-3)Gal(b1-4)GlcNAc
# How it was run: as §1
# [27] = target: Neu5Ac(a2-6)Gal(b1-4)GlcNAc(b1-3)Gal(b1-4)[Fuc(a1-3)]GlcNAc(b1-3)Gal(b1-4)[Fuc(a1-3)]GlcNAc
# How it was run: as §1
# [28] = target: Neu5Ac(a2-6)Gal(b1-4)GlcNAc6S
# How it was run: as §1
# Neu5Ac(a2-6)GalNAc = target: Neu5Ac(a2-6)GalNAc
# How it was run: as §1
# [29] = target: Neu5Ac(a2-6)GalNAc(b1-4)GlcNAc
# How it was run: as §1
# Neu5Ac(a2-8)Neu5Ac = target: Neu5Ac(a2-8)Neu5Ac
# How it was run: as §1
# [30] = target: Neu5Ac(a2-8)Neu5Ac(a2-3)Gal(b1-4)Glc
# How it was run: as §1
# [31] = target: Neu5Ac(a2-8)Neu5Ac(a2-3)[GalNAc(b1-4)]Gal(b1-4)Glc
# How it was run: as §1
# [32] = target: Neu5Ac(a2-8)Neu5Ac(a2-8)Neu5Ac
# How it was run: as §1
# [33] = target: Neu5Ac(a2-8)Neu5Ac(a2-8)Neu5Ac(a2-3)Gal(b1-4)Glc
# How it was run: as §1
# [34] = target: Neu5Ac(a2-8)Neu5Ac(a2-8)Neu5Ac(a2-3)[GalNAc(b1-4)]Gal(b1-4)Glc
# How it was run: as §1
binder,measurement,setting,value
B1,glycan array binding signal (z-score),[1],-0.176
same,glycan array binding signal (z-score),[2],-0.214
same,glycan array binding signal (z-score),[3],-0.24
same,glycan array binding signal (z-score),[4],-0.23
same,glycan array binding signal (z-score),[5],-0.21
same,glycan array binding signal (z-score),[6],-0.116
same,glycan array binding signal (z-score),[7],-0.239
same,glycan array binding signal (z-score),Neu5Ac(a2-3)Gal(b1-4)Glc,-0.233
same,glycan array binding signal (z-score),[8],-0.242
same,glycan array binding signal (z-score),[9],-0.269
same,glycan array binding signal (z-score),[10],-0.127
same,glycan array binding signal (z-score),[11],-0.214
same,glycan array binding signal (z-score),[12],-0.216
same,glycan array binding signal (z-score),[13],-0.257
same,glycan array binding signal (z-score),[14],0.173
same,glycan array binding signal (z-score),[15],-0.288
same,glycan array binding signal (z-score),[16],0.051
same,glycan array binding signal (z-score),[17],-0.283
same,glycan array binding signal (z-score),[18],0.001
same,glycan array binding signal (z-score),[19],-0.258
same,glycan array binding signal (z-score),Neu5Ac(a2-3)GalNAc,-0.216
same,glycan array binding signal (z-score),[20],-0.196
same,glycan array binding signal (z-score),[21],-0.234
same,glycan array binding signal (z-score),[22],-0.236
same,glycan array binding signal (z-score),[23],-0.255
same,glycan array binding signal (z-score),[24],-0.232
same,glycan array binding signal (z-score),[25],1.03
same,glycan array binding signal (z-score),[26],-0.255
same,glycan array binding signal (z-score),[27],-0.258
same,glycan array binding signal (z-score),[28],-0.281
same,glycan array binding signal (z-score),Neu5Ac(a2-6)GalNAc,-0.27
same,glycan array binding signal (z-score),[29],-0.176
same,glycan array binding signal (z-score),Neu5Ac(a2-8)Neu5Ac,-0.273
same,glycan array binding signal (z-score),[30],-0.281
same,glycan array binding signal (z-score),[31],-0.006
same,glycan array binding signal (z-score),[32],-0.236
same,glycan array binding signal (z-score),[33],0.008
same,glycan array binding signal (z-score),[34],-0.204
